# Experimental data as given in PubChem BioAssay (NCATS).
# Values joined by “and” are separate entries in the source; they are usually repeats but may differ in a detail not shown here. Equal values may be shown once. Inconclusive results, whose numbers are uncertain, are shown with a selection of clear calls. For some assays here: Potencies of inconclusive entries are doubtful fits and often do not repeat. Active and inactive are the calls of the source. The call rests on the fitted dose curve; in most records, active means well fitted curve in the direction sought with a large enough effect; inconclusive means small, poorly fitted or top-dose-only effect, or another doubt; inactive means no such curve, though single readings can be large; an effect the other way counts as inactive or inconclusive.
# Experiments:
# [1] = qHTS of pediatric cancer cell lines to identify multiple opportunities for drug repurposing: Primary screen for SJ-GBM2 cells (AID 1347091)
# How it was run: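 Cell viability, CellTiter-Glo luminescence; 500-1,000 cells/well, 8- or 11-point titration, 48 h compound exposure at 37 degrees C, 5% CO2. Controls: DMSO neutral, bortezomib 2.3 µM final as positive.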
# [2] = qHTS of pediatric cancer cell lines to identify multiple opportunities for drug repurposing: Primary screen for A673 cells (AID 1347092); settings: A673 Ewing sarcoma viability, CellTiter-Glo ATP luminescence, 48 h; activity change, negative = cytotoxic: at 46 µM (top of the series); further: nearly all actives have a fitted effect of over 45% in size
# How it was run: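 48 h compound exposure, A673, 500-1,000 cells/well, 37 degrees C/5% CO2. MIPE: 11-point, 0.78 nM-46 µM; NPC: 8-point, 0.59 nM-46 µM (final). Readout CellTiter-Glo luminescence after 15 min RT.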
# [3] = qHTS of pediatric cancer cell lines to identify multiple opportunities for drug repurposing: Primary screen for NB-EBc1 cells (AID 1347095)
# How it was run: (§1)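 500-1,000 cells/well; 5 h pre-incubation 37 °C/5% CO2; compound pinned; 48 h; CellTiter-Glo, 15 min RT; luminescence. MIPE 11-pt from 0.78 nM, NPC 8-pt from 0.59 nM final. Bortezomib 2.3 µM final as positive control.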
# [4] = qHTS of pediatric cancer cell lines to identify multiple opportunities for drug repurposing: Primary screen for Saos-2 cells (AID 1347097); further: nearly all actives have a fitted effect of over 40% in size
# How it was run: as §1
# [5] = qHTS of pediatric cancer cell lines to identify multiple opportunities for drug repurposing: Primary screen for BT-12 cells (AID 1347101); further: nearly all actives have a fitted effect of over 25% in size
# How it was run: (§2)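 Cells (500-1,000/well) rested 5 h, then received compounds for 48 h; metabolically active cells were measured by CellTiter-Glo luminescence. Final concentrations spanned up to 46 µM (MIPE, 11-point) or 0.59 nM-46 µM (NPC, 8-point) in primary screens, 11-point in follow-ups.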
# [6] = qHTS of pediatric cancer cell lines to identify multiple opportunities for drug repurposing: Primary screen for OHS-50 cells (AID 1347103); further: nearly all actives have a fitted effect of over 40% in size
# How it was run: as §2
# [7] = qHTS of pediatric cancer cell lines to identify multiple opportunities for drug repurposing: Primary screen for SK-N-MC cells (AID 1347093); settings: SK-N-MC viability, CellTiter-Glo luminescence, 48 h; activity change, negative = cytotoxic: at 46 µM (top of the series)
# How it was run: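 Metabolically active cells were quantified by ATP-dependent luminescence (CellTiter-Glo, 15 min at room temperature) following 48 h treatment. Cells had been plated at 500-1,000 per well and settled for 5 h beforehand.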
# [8] = qHTS of pediatric cancer cell lines to identify multiple opportunities for drug repurposing: Primary screen for BT-37 cells (AID 1347094)
# How it was run: as §1
# [9] = qHTS of pediatric cancer cell lines to identify multiple opportunities for drug repurposing: Primary screen for U-2 OS cells (AID 1347096); further: nearly all actives have a fitted effect of over 50% in size
# How it was run: as §2
# [10] = qHTS of pediatric cancer cell lines to identify multiple opportunities for drug repurposing: Primary screen for SK-N-SH cells (AID 1347098); further: nearly all actives have a fitted effect of over 65% in size
# How it was run: as §2
# [11] = qHTS of pediatric cancer cell lines to identify multiple opportunities for drug repurposing: Primary screen for NB1643 cells (AID 1347099); further: nearly all actives have a fitted effect of over 50% in size
# How it was run: as §1
# [12] = qHTS of pediatric cancer cell lines to identify multiple opportunities for drug repurposing: Primary screen for Rh18 cells (AID 1347102); further: nearly all actives have a fitted effect of over 65% in size
# How it was run: as §2
# [13] = qHTS of pediatric cancer cell lines to identify multiple opportunities for drug repurposing: Primary screen for RD cells (AID 1347104); further: nearly all actives have a fitted effect of over 55% in size
# How it was run: as §1
# [14] = qHTS of pediatric cancer cell lines to identify multiple opportunities for drug repurposing: Primary screen for Rh30 cells (AID 1347107); further: nearly all actives have a fitted effect of over 75% in size
# How it was run: as §2
# [15] = qHTS of pediatric cancer cell lines to identify multiple opportunities for drug repurposing: Primary screen for Rh41 cells (AID 1347108); further: nearly all actives have a fitted effect of over 70% in size
# How it was run: as §1
# [16] = qHTS of pediatric cancer cell lines to identify multiple opportunities for drug repurposing: Primary screen for control Hh wild type fibroblast cells (AID 1347106); further: nearly all actives have a fitted effect of over 55% in size
# How it was run: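 Viability after 48 h compound treatment at 37C, 500-1,000 cells/well, read as ATP luminescence with CellTiter-Glo. Primary screens used 11-point (MIPE, 0.78 nM-46 µM) or 8-point (NPC, 0.59 nM-46 µM) final concentrations; follow-up screens used 11-point dilutions.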
# [17] = qHTS of pediatric cancer cell lines to identify multiple opportunities for drug repurposing: Primary screen for LAN-5 cells (AID 1347100); settings: LAN-5 neuroblastoma viability, CellTiter-Glo luminescence, 48 h; activity change, negative = cytotoxic: at 46 µM (top of the series)
# How it was run: as §2
# [18] = qHTS of pediatric cancer cell lines to identify multiple opportunities for drug repurposing: Confirmatory screen for NB1643 cells (AID 1347109); settings: NB1643 neuroblastoma cell viability; activity change, negative = cytotoxic: at 45.9 µM (top of the series); further: nearly all actives have a fitted effect of over 45% in size
# How it was run: as §2
# Potency means the concentration at half of the fitted maximal effect; tags describe the fitted curve by direction and shape.
structure (smiles),measurement,setting,value
Cc1ccccc1C(C(=O)NC1CCCCC1)N(C(=O)CNc1ccc(C#N)cc1)c1cccc(F)c1 (stereo not drawn),Potency,[1],"inconclusive: 29.6 µM [cytotoxic, single point]"
same,Potency,[2],inactive
same,Potency,[3],active: 23.5 µM
same,Potency,[4],active: 18.7 µM
same,Potency,[5],inactive
same,Potency,[6],"inconclusive: 24.3 µM [cytotoxic, partial curve]"
COc1ccc2c(c1)c(C1=C(c3c[nH]c4ccccc34)C(=O)NC1=O)cn2CCCN(C)C,Potency,[1],"inconclusive: 33.2 µM [cytotoxic, single point]"
same,Potency,[7],"inconclusive: 33.2 µM [cytotoxic, partial curve, poor fit]"
same,Potency,[8],"inconclusive: 30.6 µM [cytotoxic, single point]"
same,Potency,[9],inactive
same,Potency,[4],"inconclusive: 4.69 µM [cytotoxic, partial curve]"
same,Potency,[10],active: 21.5 µM
same,Potency,[11],"inconclusive: 23.5 µM [cytotoxic, partial curve, poor fit]"
same,Potency,[5],"inconclusive: 38.5 µM [cytotoxic, single point]"
same,Potency,[12],"inconclusive: 26.4 µM [cytotoxic, single point]"
same,Potency,[6],"inconclusive: 38.5 µM [cytotoxic, single point]"
same,Potency,[13],"inconclusive: 33.2 µM [cytotoxic, single point]"
same,Potency,[14],"inconclusive: 9.35 µM [cytotoxic, partial curve]"
same,Potency,[15],"inconclusive: 18.7 µM [cytotoxic, partial curve]"
CC(C)c1c(C(=O)Nc2ccccc2)c(-c2ccccc2)c(-c2ccc(F)cc2)n1CC[C@H](O)C[C@@H](O)CC(=O)O,Potency,[1],active: 16.6 µM
same,Potency,[8],"inconclusive: 24.3 µM [cytotoxic, partial curve]"
same,Potency,[3],"inconclusive: 3.32 µM [cytotoxic, partial curve, poor fit]"
same,Potency,[10],"inconclusive: 21.5 µM [cytotoxic, partial curve]"
same,Potency,[5],active: 5.44 µM
same,Potency,[14],"inconclusive: 18.7 µM [cytotoxic, partial curve]"
same,Potency,[15],"inconclusive: 18.7 µM [cytotoxic, single point]"
OC[C@@H](O)[C@@H](O)[C@H](O)[C@@H](O)CO,Potency,[1],"inconclusive: 11.8 µM [cytotoxic, partial curve, poor fit]"
same,Potency,[8],inactive
same,Potency,[13],inactive
CC=C1NC(=O)[C@H]2CSSCCC=C[C@H](CC(=O)N[C@H](C(C)C)C(=O)N2)OC(=O)[C@H](C(C)C)NC1=O,Potency,[1],active: 0.0148 µM
same,Potency,[8],active: 0.0109 µM
same,Potency,[9],active: 0.0296 µM
same,Potency,[4],active: 0.0118 µM
same,Potency,[10],active: 0.121 µM
same,Potency,[16],active: 0.0526 µM
same,Potency,[14],active: 0.0296 µM
same,Potency,[15],active: 0.0148 µM
CC(C)CC(=O)Nc1n[nH]c2c1CN(C(=O)C1CCN(C)CC1)C2(C)C,Potency,[1],active: 1.48 µM
same,Potency,[3],"inconclusive: 0.0332 µM [cytotoxic, full curve, poor fit]"
same,Potency,[9],"inconclusive: 5.9 µM [cytotoxic, full curve]"
same,Potency,[4],active: 5.26 µM
same,Potency,[10],"inconclusive: 0.0271 µM [cytotoxic, full curve]"
same,Potency,[11],"inconclusive: 0.001 µM [cytotoxic, full curve, poor fit]"
same,Potency,[17],"inconclusive: 0.0662 µM [cytotoxic, full curve, poor fit]"
same,Potency,[5],active: 2.43 µM
same,Potency,[13],active: 2.35 µM
same,Potency,[16],"inconclusive: 0.0296 µM [cytotoxic, full curve, poor fit]"
same,Potency,[15],active: 3.72 µM
same,Potency,[18],inactive
CN1CCN(c2cc(C(=O)Nc3ccc4c(c3)-c3c(c(C(N)=O)nn3-c3ccc(F)cc3)CC4)c(Cl)cn2)CC1,Potency,[1],"inconclusive: 18.7 µM [cytotoxic, partial curve]"
same,Potency,[7],"inconclusive: 20.9 µM [cytotoxic, partial curve, poor fit]"
same,Potency,[3],"inconclusive: 18.7 µM [cytotoxic, partial curve]"
same,Potency,[9],active: 23.5 µM
same,Potency,[4],active: 16.6 µM
same,Potency,[10],active: 7.64 µM
same,Potency,[16],active: 20.9 µM
same,Potency,[14],active: 16.6 µM
same,Potency,[15],active: 20.9 µM
CN(C)CCCN1c2ccccc2CCc2ccc(Cl)cc21,Potency,[1],"inconclusive: 8.33 µM [cytotoxic, full curve] and active: 23.7 µM"
same,Potency,[2],"active: 469 nM and inconclusive: 26.6 µM [cytotoxic, single point]"
same,Potency,[3],"inconclusive: 7.43 µM [cytotoxic, full curve]"
same,Potency,[4],"inconclusive: 16.6 µM [cytotoxic, partial curve] and active: 16.8 µM"
same,Potency,[10],active: 1.52 µM and active: 24.4 µM
same,Potency,[5],active: 19.3 µM and active: 15.5 µM
same,Potency,[12],"inconclusive: 20.9 µM [cytotoxic, single point] and inconclusive: 21.1 µM [cytotoxic, single point]"
same,Potency,[13],"active: 1.48 µM and inconclusive: 13.3 µM [cytotoxic, single point]"
same,Potency,[15],"inconclusive: 3.72 µM [cytotoxic, full curve]"
same,Potency,[18],"inconclusive: 18.5 µM [cytotoxic, partial curve]"
